Experimental data as given in paper PMC4336329 (PLoS ONE, 2015).
The campaign covered roughly 310,000 compounds. About 14,000 (4.5%) showed an effect of 50% or more. The effect is printed as a negative number. The list shows a part of the results.

These compounds were tested against human ether-à-go-go-related gene (hERG) potassium channel (human, UniProt Q12809) (assay: primary screen, population patch clamp on CHO cells stably expressing hERG).
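Also: peak tail current of the secondary pulse compared with the same well before compound.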

Sequence of human ether-à-go-go-related gene (hERG) potassium channel (Q12809 whole entry, looked up): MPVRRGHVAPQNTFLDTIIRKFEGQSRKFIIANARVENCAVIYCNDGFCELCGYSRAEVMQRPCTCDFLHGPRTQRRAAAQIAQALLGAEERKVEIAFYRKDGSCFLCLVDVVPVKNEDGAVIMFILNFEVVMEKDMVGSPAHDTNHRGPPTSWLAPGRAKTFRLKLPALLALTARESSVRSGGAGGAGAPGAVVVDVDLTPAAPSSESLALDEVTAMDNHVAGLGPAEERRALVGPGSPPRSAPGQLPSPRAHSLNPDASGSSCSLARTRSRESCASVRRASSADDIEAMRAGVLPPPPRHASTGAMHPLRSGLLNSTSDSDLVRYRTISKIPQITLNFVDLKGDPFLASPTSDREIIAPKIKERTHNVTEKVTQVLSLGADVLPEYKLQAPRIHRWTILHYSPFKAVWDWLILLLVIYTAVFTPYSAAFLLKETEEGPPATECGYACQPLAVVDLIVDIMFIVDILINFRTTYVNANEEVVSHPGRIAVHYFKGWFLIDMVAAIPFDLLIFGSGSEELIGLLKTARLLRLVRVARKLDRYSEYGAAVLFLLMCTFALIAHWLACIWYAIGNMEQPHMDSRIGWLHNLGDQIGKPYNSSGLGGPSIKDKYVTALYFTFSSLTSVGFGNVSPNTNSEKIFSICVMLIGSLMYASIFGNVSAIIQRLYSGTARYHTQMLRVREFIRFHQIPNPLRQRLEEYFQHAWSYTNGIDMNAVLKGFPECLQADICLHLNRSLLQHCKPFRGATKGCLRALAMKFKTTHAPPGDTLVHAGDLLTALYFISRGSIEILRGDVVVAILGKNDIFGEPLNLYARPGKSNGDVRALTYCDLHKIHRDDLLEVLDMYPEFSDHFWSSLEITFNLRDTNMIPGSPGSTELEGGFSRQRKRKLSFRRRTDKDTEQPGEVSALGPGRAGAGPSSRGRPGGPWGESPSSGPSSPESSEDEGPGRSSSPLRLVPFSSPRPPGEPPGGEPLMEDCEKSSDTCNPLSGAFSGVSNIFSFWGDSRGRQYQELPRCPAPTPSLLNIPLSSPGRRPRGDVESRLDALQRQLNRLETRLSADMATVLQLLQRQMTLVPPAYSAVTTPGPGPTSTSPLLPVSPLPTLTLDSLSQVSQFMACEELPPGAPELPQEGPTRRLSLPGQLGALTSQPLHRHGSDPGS

Row | SMILES | hERG current change (%, negative = inhibition) at 10uM [%]
1 | CCOC(=O)c1ccc(OS(=O)(=O)c2ccccc2)c(OC)c1 | 0.607
2 | Cc1cccc(C)c1OCC(=O)NC1CC1 | 16.5
3 | O=C(COC(=O)/C=C/c1ccc(F)cc1)Nc1ccc(Cl)cn1 | 36.3
4 | O=C(NC12CC3CC(CC(C3)C1)C2)c1ccc([N+](=O)[O-])cc1 | -9.32
5 | CN(CC(=O)Nc1ccccc1C(F)(F)F)C(=O)C1CC1 | 10.3
6 | CC(C(=O)N1CCOCCOCCOCC1)N1C(=O)c2ccccc2C1=O (stereo not drawn) | 15.7
7 | S=C(Nc1ccc(Br)cc1Cl)N1CCCC1 | 14.7
8 | O=S(=O)(Cc1ccccc1)N1CCc2ccccc2C1 | 10.7
9 | Cc1ccc(NC(=O)OCc2cccs2)cc1 | 2.35
10 | CCOC(=O)C1=C(COc2ccccc2)NC(=O)NC1c1ccc2ccccc2c1 (stereo not drawn) | -12.3
11 | COC(=O)c1sccc1-c1ccc(C(=O)Nc2cccnc2)o1 | 8.97
12 | Cc1ccc([N+](=O)[O-])c(NC2OC(CO)C(O)C2O)c1 (stereo not drawn) | 24.8
13 | CN(CC(=O)NCCc1ccccc1)S(=O)(=O)c1cnc[nH]1 | 18.5
14 | COC(=O)c1c(-c2ccc(F)cc2)csc1NC(=O)C1CCCO1 (stereo not drawn) | -3.35
15 | N/C(=N\OC(=O)c1ccc(Cl)cc1)c1ccccn1 | -3.7
16 | Nc1ccc(-c2nc3cc(N)ccc3s2)cc1 | 1.12
17 | O=C(CCc1nnc(CCCCc2ccccc2)o1)NCCN1CCCCC1=O | 18.2
18 | O=C(C1CCC(Cn2c(=S)[nH]c3ccccc3c2=O)CC1)N1CCOCC1 (stereo not drawn) | -4.29
19 | N#C/C(=C\c1ccc(N2CCOCC2)o1)c1nc2ccccc2[nH]1 | -24.5

Row | SMILES | hERG current change (%, negative = inhibition) at 10uM [%]
20 | Cc1sc2nc(SCC(=O)N3CC(C)OC(C)C3)n(C)c(=O)c2c1C (stereo not drawn) | 0.428
21 | O=C(O)c1[nH]c2ccc(Br)cc2c1CCN1C(=O)c2cccc([N+](=O)[O-])c2C1=O | 4.58
22 | Cc1ccc(N2C(=N)/C(=C3/Nc4ccccc4S3)C(c3ccccc3)C2=O)cc1 (stereo not drawn) | 25.7
23 | COc1ccc(N2CCOCC2)c(NC(=O)c2ccc3c(c2)OCO3)c1 | -15.3
24 | O=C(CSCC(=O)Nc1cccc([N+](=O)[O-])c1)Nc1ccccc1 | -21.2
25 | CNc1nc2c(C)cccn2c(=O)c1C=NCc1ccccc1 | 0.873
26 | COc1cc2c(cc1OC)C(c1ccccc1)N(C(=O)c1ccccc1)CC2 (stereo not drawn) | -13.1
27 | CC1(C)CC(=O)C2=C(C1)OC(N)=C(C#N)C2c1cc2c(cc1[N+](=O)[O-])OCO2 (stereo not drawn) | -11.6
28 | CC1CCN(c2ccc3nnc(CCC(=O)Nc4cc(F)ccc4F)n3n2)CC1 | -37.5
29 | COc1ccccc1CN1CCNC(=O)C1CC(=O)NCCOc1cccnc1 (stereo not drawn) | -2.59
30 | Cc1nn(Cc2c(Cl)cccc2Cl)c(C)c1NC(=O)c1cn(-c2ccccc2)nc1-c1ccccc1 | 0.041
31 | O=S(=O)(N1CCCCC1)N1CCN(c2ccc(F)cc2)CC1 | -35.9
32 | COc1ccc(OC)c(NC(=O)C(=O)NCc2ccncc2)c1 | -12.2
33 | Cc1cnc(C(=O)OCC(=O)Nc2ccc(Br)c(C)c2)cn1 | 12.8
34 | Cc1cc(C)cc(NC(=O)CCNS(=O)(=O)c2ccc3c(c2)oc(=O)n3C)c1 | -1.91
35 | CCc1cccc(CC)c1NC(=O)CSc1nc2ccc(N3C(=O)C4C5C=CC(C5)C4C3=O)cc2s1 (stereo not drawn) | -15.2
36 | CN(C)C(=S)Nn1c(-c2ccccc2)nc2ccccc2c1=O | 11
37 | O=C(C1CCC(=O)N(C2CC2)C1)N(CCO)Cc1ccccc1 (stereo not drawn) | 9.1
38 | Cc1ccc(C2CC(c3cccs3)n3nc(N)nc3N2)cc1 (stereo not drawn) | -19.2

Row | SMILES | hERG current change (%, negative = inhibition) at 10uM [%]
39 | Cc1cc(S(=O)(=O)Nc2ccccc2C)ccc1F | -12.3
40 | CCOc1ccc(C/C(O)=C2\C(=O)CC(C)(C)CC2=NCC(=O)O)cc1OCC | 19.8
41 | O=C(Nc1cccc(F)c1)Nc1ccc2c(c1)C(=O)OC2 | 7.83
42 | C[N+]1=C(/C=C/Nc2ccccc2)C(C)(C)c2ccccc21.[O-][Cl+3]([O-])([O-])[O-] | -81.8
43 | Cc1cc(O)c(NC(=S)NC(=O)c2ccc(-c3ccc(Cl)cc3)o2)cc1C | 1.28
44 | CN(Cc1nc(-c2ccc3c(c2)OCO3)no1)CC1(N2CCOCC2)CCCCC1 | -3.56
45 | Cc1cccc(OCCSc2nncn2C)c1 | 6.64
46 | CC(C)CCNC(=O)c1c(CSc2ccc(Cl)cc2)noc1C(=O)NCc1ccccc1 | 10.6
47 | CNS(=O)(=O)c1cc(N)ccc1C | 3.48
48 | Cc1ccc(CNC(=O)CS(=O)CC(=O)O)cc1 (stereo not drawn) | -16.6
49 | Cc1cccc(C)c1NS(=O)(=O)c1ccc2c(c1)C(=O)c1ccccc1C2=O | -26
50 | CCc1ccc(NC(=O)CSc2nc3ccccc3c(=O)n2CCCC(=O)N2CCCC2)cc1 | -27.9
51 | CC(=O)N1CCC(C(=O)Nc2ccc3c(c2)CCC3)CC1 | 3.21
52 | CCC(C)(C)n1nnnc1C(C(C)C)N(CCN1CCOCC1)Cc1cc2cccc(C)c2[nH]c1=O (stereo not drawn) | -11.8
53 | O=C(CN1CCC(O)(c2ccccc2)CC1)Nc1ccc2c(c1)OCCO2 | 6.68
54 | Cc1cc(C)c(OCC(O)CNC(C)(C)C)c(C)c1.Cl (stereo not drawn) | 2.59
55 | CCN1C(=O)c2cccc3c(S(=O)(=O)NCc4cccnc4)ccc1c23 | -3.21
56 | CN(Cc1ccc(F)cc1)Cc1nc(-c2ccccc2)no1 | -6.11
57 | O=C(CCNS(=O)(=O)c1ccc2c(c1)CCC(=O)N2)NCc1ccc2c(c1)OCO2 | 0.608
